# Reference: PubChem BioAssay AID463173 (ICCB-Longwood Screening Facility, Harvard Medical School, 2010)
# Screen size: about 52,000 compounds; about 4,300 (8.3%) were called active. No stated cut-off is given here; in the data, active means survival mostly below about 52% (no sharp cut-off); inactive means mostly above about 56%. The list shows a part of the results.
# System: DeltatarO mutant
# Experiment: growth inhibition of S. aureus wild type versus tarO mutant, primary screen, teichoic acid synthesis inhibitors, RN4220, OD600 (AID 463173)
# Conditions: OD600, 18 h, stronger effect = lower value, screened at 18.75 µg/mL (by protocol)
row,SMILES,survival
1,COc1ccc(-n2ncc(C(=O)N3CCOCC3)c2C2CCN(C(=O)OC(C)(C)C)CC2)cc1,inactive: 65%
2,CCCCS(=O)(=O)c1nc(-c2ccc(Br)cc2)cc(-c2ccccc2)c1C#N,inactive: 119%
3,Cc1cccc(N2CCN(C(c3ccccc3)c3nnc(-c4ccccc4Cl)o3)CC2)c1C (stereo not given),inactive: 51%
4,Cn1nnc2c(N3CCN(c4cccc(C(F)(F)F)c4)CC3)ncnc21,inactive: 92%
5,Fc1ccccc1N1CCN(c2ncc3c(n2)CCN(Cc2cc(Br)cs2)C3)CC1,inactive: 60%
6,COc1ccc(OC)c(CNC(=O)CN2CC(C)Sc3ccccc32)c1 (stereo not given),inactive: 88%
7,CC(=O)N1N=C(N)SC1c1ccccc1 (stereo not given),inactive: 65%
8,O=C(Nc1cccc(F)c1F)C1CCN(c2ncccn2)CC1,inactive: 62%
9,COc1cccc(-n2nnc(-c3nc(-c4ccccc4F)no3)c2C)c1,inactive: 84%
10,O=C(Nc1ccc(F)cc1)N1CCN(C(=O)c2nsc3ccccc23)CC1,inactive: 55%
11,COC(=O)c1cc2occc2n1CC(=O)Nc1ccc(C(C)C)cc1,inactive: 93%
12,CCSc1nn(CC(=O)Nc2ccc(C(=O)OC)cc2)c(N)c1S(=O)(=O)c1ccc(C)cc1,active: 37%
13,COc1ccc(-c2nc3c(c(SCC(=O)N4CCCCC4)n2)Cc2c(CO)cnc(C)c2O3)cc1,inactive: 96%
14,COC(=O)c1cc(NC(=O)c2ccc3c(c2)NC(=O)c2ccccc2S3)cc(C(=O)OC)c1,inactive: 54%
15,COc1ccc(CC(NC(C)=O)C(=O)N2CCN(C(=O)Nc3ccc(C#N)cc3)CC2)cc1 (stereo not given),inactive: 99%
16,Cc1ccc2c(c1)cc(CN(Cc1ccco1)S(=O)(=O)c1ccccc1)c1nnnn12,inactive: 98%
17,O=C(/C=C\c1ccccc1)NC1CC(=O)N(c2ccccc2)C1 (stereo not given),inactive: 124%
18,Cc1cc(C)c2c(n1)sc1c(=O)n(-c3cc(Cl)ccc3C)nnc12,inactive: 84%
19,Cc1cccc2sc(N(CCCN(C)C)C(=O)COc3ccccc3)nc12,inactive: 109%
20,CCNc1ncnc2c1oc1ccccc12,inactive: 97%
21,COC(=O)c1ccccc1NC(=O)Cn1c(=O)n(-c2cccc(C(F)(F)F)c2)c(=O)c2c(C)c(C)sc21,inactive: 66%
22,COCCCNC(=O)c1ccc(Cn2c(SCc3cccc(C)c3)nc3cccnc32)cc1,inactive: 87%
23,Cc1ccc(C)c(N2CCN(C(=O)c3cc(S(=O)(=O)N4CCCCCC4)cn3C)CC2)c1,inactive: 91%

row,SMILES,survival
1,Cc1ccc(S(=O)(=O)NCC2CCC(C(=O)NCCc3ccc(Cl)cc3)CC2)cc1 (stereo not given),inactive: 89%
2,CCN(CC)S(=O)(=O)c1ccc2oc(C(=O)NCc3ccccc3OC)c(C)c2c1,inactive: 71%
3,CCOc1ccc(N(CC)S(=O)(=O)N2CCCC(C(=O)NCCc3ccc(OC)cc3)C2)cc1 (stereo not given),inactive: 71%
4,O=S(=O)(CCn1cccc1)CCn1cccc1,inactive: 71%
5,CCOCCCN(Cc1ccco1)C(=O)c1cc2c(=O)[nH]c3ccc(C)cc3c2s1,inactive: 88%
6,COc1ccc(/C=C(\C#N)c2nc3ccccc3n2C)c(OC)c1,active: 29%
7,O=S(=O)(c1ccccc1)c1nnn2c1nc(NCc1ccccc1)c1sccc12,inactive: 87%
8,COCCNC(=O)Cn1c(=O)n(CCCCCC(=O)Nc2ccccc2)c(=O)c2sccc21,inactive: 102%
9,O=C(NCc1cccs1)c1ccc(Cn2c(SCc3ccc(F)cc3)nc3cccnc32)cc1,inactive: 84%
10,Cc1ccc(Cl)cc1N1CCN(C(=O)CN2C(=O)CSc3c2c(C)nn3-c2ccccc2)CC1,inactive: 94%
11,COc1cccc(NC(=O)c2cnc(SCC(=O)N3CCOCC3)n(C)c2=O)c1,inactive: 120%
12,CCc1ccc2c(c1)-c1ccccc1S(=O)(=O)N2CC(=O)N1CCCCC1,inactive: 77%
13,COc1ccc(-c2cn3c(n2)sc2cc(C(=O)NCCc4ccc(OC)cc4OC)ccc23)cc1,inactive: 65%
14,NNC(=O)CNC(=O)c1ccc2c(c1)OCO2,inactive: 115%
15,CCOc1ccc(CNS(=O)(=O)c2ccc(-c3coc(C)n3)cc2)cc1OC,inactive: 81%
16,CCN(Cc1ccccc1)C(=O)c1sc2nc3n(c(=O)c2c1C)CCCC3,inactive: 80%
17,CCN(CC)CCCNC(=O)c1nn(-c2ccc(C)cc2)c(=O)c2c1c1ccccc1n2C,inactive: 85%
18,OC(COC(c1ccccc1)c1ccccc1)CN1CCCCC1 (stereo not given),inactive: 67%
19,CCCCN(C)CCCNC(=O)Cn1ncc2c3ccccc3n(Cc3cc(C)ccc3C)c2c1=O,inactive: 98%
20,O=C(O)COc1nsnc1N1CCOCC1,inactive: 78%
21,O=C(CN1CCOCC1)NC12CC3CC(CC(C3)C1)C2,inactive: 98%
22,CCC(=O)N1c2ccc(S(=O)(=O)CCC(=O)Nc3ccc(Br)c(C)c3)cc2CC1C (stereo not given),inactive: 72%
23,COc1ccccc1CNC(=O)c1cc2c(s1)-c1ccccc1OC2,inactive: 61%

row,SMILES,survival
1,CCc1ccc(S(=O)(=O)c2c(C(=O)c3ccccc3)cnc3ccc(CC)cc23)cc1,inactive: 70%
2,O=S(=O)(c1cccc(F)c1)N1CCC(Oc2ccc(-n3cnnn3)cc2)CC1,inactive: 79%
3,CCOCCCNC(=O)c1c(NC(=O)Cc2coc3ccc(C)cc23)sc2c1CCC2,inactive: 95%
4,CCCCc1nc2ccccc2c(C(=O)O)c1C,inactive: 75%
5,CC(C)c1ccc(OCC(O)CN2CCN(c3ccc(F)cc3)CC2)cc1 (stereo not given),inactive: 56%
6,CCOC(=O)c1c(-c2ccccc2)oc2cc(Br)c(OCC(N)=O)cc12,inactive: 79%
7,COc1ccccc1CN1CCC(CNC(=O)c2cnn(-c3ccc(Cl)cc3)c2C2CCN(C(=O)OC(C)(C)C)CC2)CC1,inactive: 113%
8,CCCCNS(=O)(=O)c1ccc2nc(-c3cccnc3)cc(C(=O)NCCOC)c2c1,inactive: 73%
9,COc1cccc(-c2nnc(SCC(=O)N3c4ccccc4Sc4ccccc43)o2)c1,active: 35%
10,Cc1ccccc1NC(=O)c1ccc(Cl)c(S(=O)(=O)N2CCCCCC2)c1,inactive: 132%
11,O=C(NCCCc1nc2ccccc2n1Cc1ccc(Cl)cc1Cl)c1ccco1,inactive: 58%
12,Cn1c(=O)[nH]c(=O)c2c1nc(CN1CCN(c3cccc(Cl)c3)CC1)n2Cc1ccccc1,inactive: 97%
13,COc1ccc(C(=O)N2c3ccc(C)cc3C(C)(c3ccccc3)CC2(C)C)cc1 (stereo not given),active: 25%
14,CCc1ccc(CNC(=O)c2c(C)oc3ncn(CC(C)C)c(=O)c23)cc1,inactive: 88%
15,COc1cc(Cl)c(C)cc1NC(=O)Cn1ncc2c3ccccc3n(Cc3ccccc3)c2c1=O,inactive: 83%
16,COc1ccc(CNC(=O)CCCn2c(=O)c3cccn3c3cccnc32)cc1,inactive: 106%
17,CCN(CC)CCCNC(=O)CN1N=C(c2ccc(OC)cc2)CCC1=O,inactive: 105%
18,CCOC(=O)c1c(C)sc(-c2c(-c3ccc(OC)c(F)c3)[nH]c3[nH]c(=O)[nH]c(=O)c23)c1O,inactive: 118%
19,CC1=C(C(=O)Nc2ccc(Cl)cc2)C(c2ccc(C(F)(F)F)cc2)n2nnnc2N1 (stereo not given),inactive: 64%
20,COc1ccc(-c2nc(SCC(=O)N3CCCCC3C)n[nH]2)cc1 (stereo not given),inactive: 130%
21,CCOC(=O)c1cc(-c2ccc(OC)cc2)n(CCC(=O)Nc2nc3ccc(OCC)cc3s2)c1C,inactive: 105%
22,Cc1cc(=O)[nH]c2c1c(=O)[nH]n2C1CC(C)N(C)CC1C (stereo not given),inactive: 112%
23,COC(=O)c1cnn(-c2ccc(C(=O)Nc3cc(OC)c(OC)c(OC)c3)cc2)c1N,inactive: 92%

row,SMILES,survival
1,Cc1ccc(CN(Cc2ccco2)C(=O)c2ccc(Cl)cc2)o1,inactive: 106%
2,CCc1ccc(-n2c(=O)c3c(C)c(C(=O)N(C)C)sc3n(Cc3ccccc3C#N)c2=O)cc1,inactive: 83%
3,CCc1cccc(C)c1Nc1c(-c2cccc(O)c2)nc2nc(C)cc(C)n12,inactive: 66%
4,CCC1CCCCN1C(=O)Cn1c(=O)cc(C(F)(F)F)c2c(C)nn(C)c21 (stereo not given),inactive: 71%
5,COc1ccc(NC(=O)CSc2nccn2Cc2ccco2)c(OC)c1,inactive: 122%
6,CC(=O)Oc1ccccc1C(=O)N1CCN(c2ccccc2F)CC1,inactive: 73%
7,O=C1c2[nH]nc(-c3ccccc3O)c2C(c2ccc(F)cc2)N1CCO (stereo not given),inactive: 78%
8,COc1ccc(OC)c(NC(=O)Cc2c(C(=O)O)n(C)c3ccc(C)cc23)c1,inactive: 104%
9,COc1ccc(-n2cc(C(=O)NCCc3ccc(C)cc3)c3ccccc3c2=O)cc1,inactive: 53%
10,NC(=O)C1CCCN(C(=O)Nc2c[nH]c3ccccc3c2=O)C1 (stereo not given),inactive: 93%
11,CC1CCCCN1C(=O)CSc1nc2ccccc2nc1Cc1ccccc1 (stereo not given),inactive: 76%
12,COC(=O)c1ccc(C2CC(=O)Nc3c2c(C)nn3-c2nc(C)cc(C)n2)cc1 (stereo not given),inactive: 65%
13,COc1ccc(CNC(=O)C2CCCCN2S(=O)(=O)c2ccc(F)cc2)cc1 (stereo not given),inactive: 95%
14,CCOc1c(CC2C(=O)Nc3ccc(Br)cc32)cccc1OC (stereo not given),inactive: 102%
15,Cc1nc(N2CCOCC2)c2c(C(=O)N3CCN(c4cc(Cl)ccc4C)CC3)c(C)oc2n1,active: 46%
16,O=C(CN1C(=O)C2CCCCN2c2ccc(C(=O)N3CCCC3)cc21)NCc1ccc(F)cc1 (stereo not given),inactive: 85%
17,CCOc1ccccc1CNc1ncnc2onc(-c3ccc(F)cc3)c12,inactive: 91%
18,CCCC(=O)Nc1nc2ccc(S(C)(=O)=O)cc2s1,inactive: 93%
19,CCN1CCC(N(Cc2ccc(F)cc2)C(=O)Nc2cc(C)ccc2C)CC1,inactive: 81%
20,Cc1cc(-c2ccc(S(=O)(=O)Nc3ccccc3C)cc2)on1,inactive: 95%
21,CCOC(=O)c1cc2c(ccn2C)n1CC(=O)NC(c1ccccc1)c1ccccc1,inactive: 97%
